Some of the results follow.
Tests used:
HSkMC = human skeletal muscle cells; experiment: cytotoxicity call (relative viability < 0.9); details: 10 µM
HepG2 = experiment: cytotoxicity call (relative viability < 0.9); details: 10 µM
S. aureus RN4220 = experiment: growth inhibition call (relative growth <= 0.2); details: 50 µM

SMILES | cytotoxicity call (HSkMC) | cytotoxicity call (HepG2) | growth inhibition call (S. aureus RN4220)
C[C@H]1CN([C@@H](C)CO)C(=O)Cc2cc(NC(=O)Nc3ccc(F)cc3)ccc2O[C@@H]1CN(C)Cc1ccc(C(F)(F)F)cc1 | inactive | inactive | inactive
CC(CC(=O)C1OC1(C)C)C1C(=O)CC2(C)C3=CCC4C(C)(C)C(OC5OCC(O)C(O)C5O)CCC45CC35C(O)CC12C (stereo unspecified) | inactive | active | inactive
CCn1c(=S)[nH]c2ccccc21 | inactive | inactive | inactive
C[C@@H]1CN([C@H](C)CO)C(=O)Cc2cc(NC(=O)NC3CCCCC3)ccc2O[C@H]1CN(C)C(=O)Nc1ccc(C(F)(F)F)cc1 | inactive | inactive | inactive
C[C@@H]1CN([C@H](C)CO)C(=O)c2cc(NC(=O)Nc3ccc(F)cc3)ccc2O[C@@H](C)CCCCO[C@H]1CN(C)C(=O)Nc1ccc(F)cc1 | inactive | active | inactive
C[C@H]1CCc2cc(F)ccc2N1 | inactive | inactive | inactive
C[C@@H]1CCCCO[C@@H](CN(C)C(=O)NC2CCCCC2)[C@@H](C)CN([C@H](C)CO)C(=O)c2cc(NC(=O)CCC(F)(F)F)ccc2O1 | inactive | inactive | inactive
Cl.OC(CNCC(O)C1CCc2cc(F)ccc2O1)C1CCc2cc(F)ccc2O1 (stereo unspecified) | inactive | inactive | inactive
C[C@H](CO)N1C[C@H](C)[C@@H](CN(C)C(=O)Nc2ccc(C(F)(F)F)cc2)Oc2c(NC(=O)CCCCCC(=O)Nc3ccccc3N)cccc2C1=O | inactive | inactive | inactive
C[C@H]1CCCCO[C@@H](CN(C)C(=O)Nc2ccc(F)cc2)[C@@H](C)CN([C@@H](C)CO)C(=O)c2cc(NC(=O)c3ccncc3)ccc2O1 | inactive | inactive | inactive
COc1ccc(S(=O)(=O)N[C@@H]2CC[C@@H](CCNC(=O)CN3CCOCC3)O[C@H]2CO)cc1 | inactive | inactive | inactive
C[C@H]1CN([C@@H](C)CO)C(=O)c2cccc(NC(=O)NC3CCCCC3)c2O[C@@H]1CN(C)C(=O)Nc1cccc2ccccc12 | inactive | inactive | inactive
Cc1ccc(NC(=N)N=C(N)N)c(C)c1 | inactive | inactive | inactive
O=C(OCc1ccccc1)c1cccnc1 | inactive | active | inactive
C[C@@H]1CN([C@H](C)CO)C(=O)c2cc(NC(=O)c3ccccc3)ccc2O[C@@H](C)CCCCO[C@@H]1CN(C)C(=O)c1ccccc1 | inactive | inactive | inactive
C[C@@H]1CN([C@@H](C)CO)C(=O)c2cc(NC(=O)C3CCCCC3)ccc2O[C@@H](C)CCCCO[C@@H]1CN(C)Cc1ccc2c(c1)OCO2 | inactive | inactive | inactive
COC(=O)[C@H]1CCCNC1=O | inactive | inactive | inactive
CC1(C)CCCC2(C)C1CCC1(C)OC(=O)CC12 (stereo unspecified) | inactive | inactive | inactive
C[C@@H]1CN([C@@H](C)CO)C(=O)Cc2cc(NS(=O)(=O)c3ccc(F)cc3)ccc2O[C@@H]1CN(C)S(=O)(=O)c1cccs1 | inactive | inactive | inactive

SMILES | cytotoxicity call (HSkMC) | cytotoxicity call (HepG2) | growth inhibition call (S. aureus RN4220)
Nc1ccccc1O | inactive | inactive | inactive
COc1ccc(NC(=O)Nc2ccc3c(c2)C(=O)N([C@H](C)CO)C[C@@H](C)[C@@H](CN(C)Cc2ccccc2)OCCCC[C@@H](C)O3)cc1 | inactive | inactive | inactive
C[C@H](CO)N1C[C@H](C)[C@@H](CN(C)S(=O)(=O)c2ccccc2)Oc2ccc(NC(=O)Cc3ccccc3)cc2C1=O | inactive | inactive | inactive
CO[C@H]1CN(C)C(=O)c2ccc(NC(=O)Nc3cccc(F)c3)cc2OC[C@H](C)N(C(=O)Nc2c(C)noc2C)C[C@H]1C | inactive | inactive | inactive
CN1C(=O)c2cc(NC(=O)C3CCOCC3)ccc2OC[C@@H]2O[C@@H](CC(=O)NCCc3ccncc3)CC[C@H]21 | inactive | inactive | inactive
C[C@@H]1CN([C@@H](C)CO)C(=O)Cc2cc(NC(=O)CCCN(C)C)ccc2O[C@@H]1CN(C)S(=O)(=O)c1ccccc1 | inactive | inactive | inactive
COc1ccc(CN(C)C[C@H]2OCCCC[C@H](C)Oc3ccc(NC(=O)NC4CCCCC4)cc3C(=O)N([C@@H](C)CO)C[C@H]2C)cc1 | inactive | active | inactive
C[C@@H]1CN([C@@H](C)CO)C(=O)c2cccc(NC(=O)C3CCOCC3)c2O[C@@H]1CN(C)C(=O)Nc1ccc2c(c1)OCO2 | inactive | inactive | inactive
O=C1CN(S(=O)(=O)Cc2ccccc2)C[C@H]2[C@H](c3ccc(C#Cc4cccc(F)c4)cc3)[C@H](CO)N12 | active | active | inactive
C[C@H]1CN([C@@H](C)CO)S(=O)(=O)c2ccc(C#CC(C)(C)O)cc2O[C@@H]1CN(C)Cc1ccc(F)cc1 | inactive | inactive | inactive
C[C@@H]1CN([C@H](C)CO)C(=O)c2cc(NC(=O)Nc3cccc4ccccc34)ccc2O[C@H]1CN(C)Cc1ccc(Cl)c(Cl)c1 | inactive | inactive | inactive
C[C@H](CO)N1C[C@H](C)[C@@H](CN(C)C(=O)CN2CCOCC2)Oc2cc(C#Cc3cccc(F)c3)ccc2S1(=O)=O | inactive | inactive | inactive
C[C@H](CO)N1C[C@H](C)[C@H](CN(C)S(=O)(=O)c2cn(C)cn2)Oc2cc(C#Cc3ccccc3)ccc2S1(=O)=O | inactive | inactive | inactive
C[C@H](CO)N1C[C@H](C)[C@@H](CN(C)C(=O)Cc2ccccc2)OCCCC[C@H](C)Oc2ccc(NS(=O)(=O)c3ccc(F)cc3)cc2C1=O | inactive | inactive | inactive
C[C@@H]1CCCCO[C@H](CN(C)Cc2ccc(C(F)(F)F)cc2)[C@@H](C)CN([C@H](C)CO)C(=O)c2cc(NC(=O)CCCN(C)C)ccc2O1 | inactive | inactive | inactive
CC(C)NC(=O)Nc1cccc2c1O[C@@H](CN(C)S(=O)(=O)c1ccc(Cl)cc1)[C@H](C)CN([C@H](C)CO)C2=O | inactive | inactive | inactive
COc1ccc(NC(=O)N2C[C@H](O)COC[C@H]3O[C@@H](CC(=O)NCc4ccccc4OC)CC[C@@H]32)cc1 | inactive | inactive | inactive
CCCCCC1C(=O)CCC1CC(=O)OC (stereo unspecified) | inactive | inactive | inactive
C[C@@H]1CN([C@H](C)CO)C(=O)c2cc(NS(C)(=O)=O)ccc2O[C@@H]1CN(C)Cc1ccc2c(c1)OCO2 | inactive | inactive | inactive

SMILES | cytotoxicity call (HSkMC) | cytotoxicity call (HepG2) | growth inhibition call (S. aureus RN4220)
COc1ccccc1CN1C(=O)c2ccccc2[C@](Cc2ccccc2I)(C(=O)NC2CC2)[C@@H]1c1ccc(CO)cc1 | inactive | active | inactive
C[C@@H]1CN([C@@H](C)CO)C(=O)CCCn2cc(nn2)CO[C@@H]1CN(C)C(=O)Nc1cccc(C(F)(F)F)c1 | inactive | inactive | inactive
CC(=O)N(O)CCC[C@H]1NC(=O)CNC(=O)CNC(=O)CNC(=O)[C@@H](CCCN(O)C(C)=O)NC(=O)[C@@H](CCCN(O)C(C)=O)NC1=O | inactive | inactive | inactive
Cc1noc(C)c1S(=O)(=O)Nc1ccc2c(c1)CC(=O)N([C@H](C)CO)C[C@H](C)[C@H](CN(C)S(=O)(=O)c1c(C)noc1C)O2 | inactive | inactive | inactive
C[C@H]1CN([C@@H](C)CO)C(=O)c2cc(NC(=O)Nc3cccc4ccccc34)ccc2O[C@@H]1CN(C)C(=O)Nc1ccccc1 | inactive | inactive | inactive
CNC[C@H]1Oc2ccc(NC(=O)Cn3cnnn3)cc2CC(=O)N([C@H](C)CO)C[C@@H]1C | inactive | inactive | inactive
Cc1ccc(S(=O)(=O)Nc2ccc3c(c2)C(=O)N([C@@H](C)CO)C[C@@H](C)[C@@H](CN(C)S(=O)(=O)c2ccc(C)cc2)OCCCC[C@H](C)O3)cc1 | inactive | inactive | inactive
C[C@H](CO)N1C[C@H](C)[C@H](CN(C)Cc2ccc(C(=O)Nc3ccccc3N)cc2)Oc2ccc(NC(=O)Nc3cccc4ccccc34)cc2C1=O | inactive | active | inactive
C=CC1CN2CCC1CC2C(O)c1ccnc2ccc(OC)cc12.Cl (stereo unspecified) | inactive | active | inactive
COc1ccc(S(=O)(=O)Nc2ccc3c(c2)CC(=O)N([C@H](C)CO)C[C@@H](C)[C@H](CN(C)S(=O)(=O)c2ccc(C)cc2)O3)cc1 | inactive | inactive | inactive
C[C@@H]1CN([C@H](C)CO)C(=O)c2cc(Br)cnc2O[C@H]1CN(C)C(=O)Nc1ccc(F)cc1 | inactive | inactive | inactive
C[C@@H]1CN([C@H](C)CO)C(=O)CCCn2cc(nn2)CO[C@@H]1CN(C)Cc1ccc(C(=O)Nc2ccccc2N)cc1 | inactive | inactive | inactive
CN(C)CC#Cc1ccc([C@H]2[C@H](CO)N3CCCCN(C(=O)CN(C)C)C[C@@H]23)cc1 | inactive | inactive | inactive
O=C(C[C@@H]1CC[C@H]2[C@@H](COC[C@@H](O)CN2S(=O)(=O)c2cccc(Cl)c2)O1)NCc1ccncn1 | inactive | inactive | inactive
C[C@@H]1CN([C@H](C)CO)C(=O)c2cccc(NC(=O)C3CCOCC3)c2O[C@H]1CN(C)C(=O)Nc1ccccc1 | inactive | inactive | inactive
COc1ccc(S(=O)(=O)N(C)C[C@@H]2OCc3cnnn3CCCC(=O)N([C@H](C)CO)C[C@H]2C)cc1 | inactive | inactive | inactive
O=C(N1CCOCC1)C(F)(F)F | inactive | inactive | inactive
Cc1noc(C)c1NC(=O)Nc1ccc2c(c1)C(=O)N([C@H](C)CO)C[C@H](C)[C@H](CN(C)Cc1ccc3c(c1)OCO3)OCCCC[C@@H](C)O2 | inactive | inactive | inactive
CNC[C@H]1OCCCC[C@H](C)Oc2ccc(NS(=O)(=O)c3c(C)noc3C)cc2C(=O)N([C@H](C)CO)C[C@@H]1C | inactive | inactive | inactive

From the antibiotic and cytotoxicity screens of Wong et al. (2023)
